The campaign covered roughly 310,000 compounds. About 14,000 (4.5%) showed an effect of 50% or more. The effect is printed as a negative number. The list shows a part of the results.
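Further: peak tail current of the secondary pulse compared with the same well before compound.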

Sequence of human ether-à-go-go-related gene (hERG) potassium channel (Q12809 whole entry, looked up): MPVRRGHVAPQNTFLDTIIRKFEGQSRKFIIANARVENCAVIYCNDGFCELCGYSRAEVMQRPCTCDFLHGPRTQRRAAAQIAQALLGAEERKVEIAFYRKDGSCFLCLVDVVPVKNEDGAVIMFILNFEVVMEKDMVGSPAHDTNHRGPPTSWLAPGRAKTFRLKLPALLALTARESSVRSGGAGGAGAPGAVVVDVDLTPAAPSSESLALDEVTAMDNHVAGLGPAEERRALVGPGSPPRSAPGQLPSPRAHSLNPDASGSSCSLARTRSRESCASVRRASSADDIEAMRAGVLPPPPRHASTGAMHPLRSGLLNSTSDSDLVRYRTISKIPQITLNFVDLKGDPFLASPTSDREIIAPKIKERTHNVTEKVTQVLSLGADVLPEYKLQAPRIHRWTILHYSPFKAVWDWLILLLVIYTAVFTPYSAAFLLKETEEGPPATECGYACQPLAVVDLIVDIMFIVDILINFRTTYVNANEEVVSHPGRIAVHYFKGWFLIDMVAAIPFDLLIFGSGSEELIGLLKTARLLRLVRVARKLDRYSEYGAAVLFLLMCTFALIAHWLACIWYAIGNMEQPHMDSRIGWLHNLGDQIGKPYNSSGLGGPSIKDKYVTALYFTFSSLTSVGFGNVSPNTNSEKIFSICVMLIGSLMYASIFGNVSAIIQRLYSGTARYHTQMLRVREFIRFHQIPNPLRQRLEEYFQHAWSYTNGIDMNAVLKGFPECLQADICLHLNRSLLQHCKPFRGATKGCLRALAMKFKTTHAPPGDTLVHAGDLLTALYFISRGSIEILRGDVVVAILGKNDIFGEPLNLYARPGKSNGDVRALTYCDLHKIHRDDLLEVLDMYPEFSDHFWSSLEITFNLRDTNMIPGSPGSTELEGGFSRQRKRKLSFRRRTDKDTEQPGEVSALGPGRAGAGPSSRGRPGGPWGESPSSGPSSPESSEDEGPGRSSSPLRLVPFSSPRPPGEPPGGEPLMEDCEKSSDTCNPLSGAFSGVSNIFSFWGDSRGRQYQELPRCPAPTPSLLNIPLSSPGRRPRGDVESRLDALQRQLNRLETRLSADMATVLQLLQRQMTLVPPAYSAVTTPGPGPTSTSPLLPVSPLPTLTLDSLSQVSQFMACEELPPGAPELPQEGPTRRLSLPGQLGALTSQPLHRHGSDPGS

The assay has as its target human ether-à-go-go-related gene (hERG) potassium channel (human, UniProt Q12809). Nature of the assay: primary screen, population patch clamp on CHO cells stably expressing hERG.
With `Cc1ccc(F)cc1NC(=O)Cc1ncc(C(F)(F)F)cc1Cl`, the “hERG current change (%, negative = inhibition) at 10uM” value was 7.66%. Under `CC(Oc1ccc(S(=O)(=O)N2CCCC2)cc1[N+](=O)[O-])C(=O)NC(C)c1ccccc1` (stereo not drawn) stands -10.2%; under `CCOc1ncccc1C(=O)OCC(=O)Nc1ccc2c(c1)OCO2`, 12.6%.

In the case of `NS(=O)(=O)c1ccc(CCNC(=O)CSc2nc3ccsc3c(=O)n2C2CC2)cc1`, the “hERG current change (%, negative = inhibition) at 10uM” value is on record as 0.862%. Turning to `CCOc1cc(CN2CCN(Cc3ccc(C)o3)C(CCO)C2)ccc1OC` (stereo not drawn), the “hERG current change (%, negative = inhibition) at 10uM” value is given as -3.33%. Regarding `CNC(=O)CSc1nc(-c2ccccc2)c(-c2ccccc2)o1`, the “hERG current change (%, negative = inhibition) at 10uM” value is given as 5.63%.

`COCCC(=O)N1CCC(Oc2ccc(C(=O)NC3CCCCC3)cc2)CC1`: the “hERG current change (%, negative = inhibition) at 10uM” value is -0.0745%. Under `O=C(C1CCC1)N1CCN(S(=O)(=O)c2ccc([N+](=O)[O-])cc2)CC1` stands -62.6%; under `Cc1ccc2c(c1)N(C(=O)CCC(=O)NC1CCCCCC1)CCO2`, -12.2%. On to `O=C(CSc1nccn1-c1ccccc1)NCc1ccc2c(c1)OCO2`, for which the “hERG current change (%, negative = inhibition) at 10uM” value is -18.1%. As for `O=C(/C=C/c1ccc(F)cc1)NCc1ccco1`, the “hERG current change (%, negative = inhibition) at 10uM” value is on record as -3.95%.

Consider `COc1cc([N+](=O)[O-])cc(/C=N/NC(=O)C(C)Nc2cccc(C)c2)c1O` (stereo not drawn), for which the “hERG current change (%, negative = inhibition) at 10uM” value amounted to 22.7%. Take `CC1CSc2nc3sc4c(c3c(=O)n21)CCCC4` (stereo not drawn): the “hERG current change (%, negative = inhibition) at 10uM” value was -6.48%. For the molecule `CCCCC(=O)NC(c1ccc(N(CC)CC)cc1)c1ccc2cccnc2c1O` (stereo not drawn), the “hERG current change (%, negative = inhibition) at 10uM” value stood at 3.92%. As to `O=C(c1c(F)cccc1F)N1CCCC1`, the “hERG current change (%, negative = inhibition) at 10uM” value is -5.32%. For `CC1CC(C)CN(C(=O)COC(=O)c2cc3ccccc3cc2O)C1` (stereo not drawn), the “hERG current change (%, negative = inhibition) at 10uM” value was -7.65%. Regarding `CC(=O)N(C1=NCCCS1)c1ccccc1F`, the “hERG current change (%, negative = inhibition) at 10uM” value is given as -10.6%. Take `CCO[C@@H]1OC(C(=O)Nc2ccccc2)=C[C@H](c2ccc(Br)cc2)[C@H]1CCCO`: the “hERG current change (%, negative = inhibition) at 10uM” value is -11.4%. Turning to `Cc1cccc(Nc2cnn(C34CC5CC(CC(CC(=O)O)(C5)C3)C4)c(=O)c2Cl)c1`, the “hERG current change (%, negative = inhibition) at 10uM” value is -1.35%. The figure for `COc1ccc(S(=O)(=O)N(C)C)cc1NC(=O)c1ccc(OCC(=O)N2CCOCC2)c(OC)c1` is -3.64%; for `O=C1N=c2ccc(Br)cc2=C1c1sc(=O)[nH]c1O` it is 34.8%.

Turning to `Cc1nonc1NC(=O)c1ccccc1Br`, the “hERG current change (%, negative = inhibition) at 10uM” value is 6.95%. Turning to `NC(=O)C1CCN(c2ccnc3cc(Cl)ccc23)CC1`, the “hERG current change (%, negative = inhibition) at 10uM” value is -51.6%. Turning to `COc1ccc(N(C(=O)CNC(=O)c2ccco2)C(C(=O)NC2CCCC2)c2ccco2)cc1` (stereo not drawn), the “hERG current change (%, negative = inhibition) at 10uM” value came out at 3.39%.

The record behind these values is paper PMC4336329 (PLoS ONE, 2015).
